# From PubChem BioAssay AID686979 (National Center for Advancing Translational Sciences (NCATS), 2013)
# Among all 420,000 compounds or so, about 50,000 (12%) were called active. Inconclusive means that the source gave no clear call. Such entries were picked first, then a sample of the others. The call rests on the fitted dose curve; in most records, active means well fitted inhibition curve with a large enough effect; inconclusive means small, poorly fitted or top-dose-only effect; inactive means flat fitted curve, though single readings scatter. Potencies of inconclusive entries are left out as doubtful fits.
# Experiment: qHTS for Inhibitors of human tyrosyl-DNA phosphodiesterase 1 (TDP1): qHTS in cells in presence of CPT; further: nearly all actives have a fitted effect of over 55% in size
# Conditions: chicken DT40 Tdp1-/-;hTDP1 cells + 20 nM CPT, ATP luminescence, 48 h; activity change, negative = growth inhibition: at 46.2 µM (top of the series) unless noted
# Procedure, shortened: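 Cell growth measured by CellTiter-Glo luminescence after a minimum 48 h, 37 C compound exposure with 20 nM CPT in Tdp1-knockout DT40 cells stably expressing hTDP1, seeded 400/well; qHTS titration format.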
# On the % scale 0 is the no-effect control and ±100 the full control effect; potency means the concentration at half of the fitted maximal effect; tags describe the fitted curve by direction and shape.
SMILES,Potency,"activity change, negative = growth inhibition"
CSCC[C@H](NC(=O)N1CCn2c1nc1ccccc12)C(=O)NCc1ccc(F)cc1,"inconclusive [inhibitor, single point]",
CC[N+]1(C)CC2CCC(C)(C1)C2(C)C (stereo not drawn),,inactive: -9.62%
C/C(O)=C(\N=Nc1cc(C)ccc1O)C(N)=O,"inconclusive [inhibitor, partial curve, poor fit]",
CCN(/N=C/C=C/c1ccccc1)c1cc(=O)n(C)c(=O)[nH]1,active: 1.46 µM,
NC(=O)c1nsc(C(=O)N(c2ccccc2)C(C(=O)NCC2CCCO2)c2ccc(F)cc2)c1N (stereo not drawn),"inconclusive [inhibitor, partial curve, poor fit]",
CC(Oc1ccc(F)cc1)C(=O)Nc1cc(-c2ccc(F)c(F)c2)no1 (stereo not drawn),"inconclusive [inhibitor, single point]",
Cc1cc(C)n(-c2ccc(C)c(Cl)c2)n1,,inactive: 3.5%
COc1ccccc1N(Cc1ccccc1)S(=O)(=O)c1cccc(C(=O)N2CCCCC2)c1,"inconclusive [inhibitor, single point]",
CCCn1nc2cc(C(=O)NCc3ccccc3)ccc2c1OCC,,inactive: -13.4%
Cc1ccc(S(=O)(=O)NCC2CCC(C(=O)N(C)Cc3ccccc3)CC2)cc1 (stereo not drawn),"inconclusive [inhibitor, single point]",
O=C(Nc1cccc(O)c1)c1cc(-c2cccs2)on1,"inconclusive [inhibitor, single point]",
C=CCn1c(NCc2c[nH]c3ccccc23)nc2ccccc21,"inconclusive [inhibitor, single point]",
CN(Cc1ccccc1)C(=O)CCC1CCN(C(=O)c2ccccc2C(F)(F)F)CC1,"inconclusive [inhibitor, single point]",
O=S1(=O)CCO[C@H]2Cc3ccccc3[C@H]2N1Cc1ccccc1,"inconclusive [inhibitor, single point]",
COc1ccc(S(=O)(=O)Nc2ccc3c(c2)n(C)c(=O)n3C)cc1F,active: 23.1 µM,
N=C1C(c2ccc(Br)cc2)=C(O)C2CCc3ccccc3N12 (stereo not drawn),"inconclusive [inhibitor, single point]",
Cc1cn([C@H]2C[C@H](O)[C@@H](/C=C/C(=O)NCCCc3ccccc3)O2)c(=O)[nH]c1=O,,inactive: 9.83%
S=C(Nc1ccccc1)Nc1nc2ccccc2n1CCOc1ccc(Cl)cc1,active: 20.6 µM,
Cc1ccccc1-c1cnc(C(O)c2ccc(Cl)cc2)[nH]1 (stereo not drawn),"inconclusive [inhibitor, partial curve]",

SMILES,Potency,"activity change, negative = growth inhibition"
COc1cccc(NC(=O)Nc2ccc3nsnc3c2)c1,"inconclusive [inhibitor, single point]",
COCCNc1nc(NCc2ccc(C(C)C)cc2)c2sccc2n1,active: 11.6 µM,
CC1CCCN(C(=O)CSc2nnc(-c3ccncc3)n2C)C1 (stereo not drawn),,inactive: -0.698%
O=C1C=C(Nc2ccccc2)c2ccccc2C1=O,active: 7.31 µM,
O=C(OCc1ccc(Br)cc1)c1cccnc1,"inconclusive [inhibitor, full curve]",
O=C(Cc1c(F)cccc1Cl)NCc1cccnc1,,inactive: 2.98%
COc1ccc(Nc2nc(N)nc(CN3CCN(c4ccc(F)cc4)CC3)n2)cc1,"inconclusive [inhibitor, single point]",
CCSc1ncc(Cl)c(C(=O)Nc2nnc(CC)s2)n1,,inactive: -20.9%
COc1c(F)c(F)cc2c(=O)c(C(=O)O)cn(C3CC3)c12,,inactive: 2.01%
Cc1ccc2c(C)nc(SC(C(=O)c3ccccc3)c3ccccc3)nc2c1 (stereo not drawn),"inconclusive [inhibitor, single point]",
CCOc1cc(C=C(C(=O)OC)C(=O)OC)ccc1OCc1ccc([N+](=O)[O-])cc1,active: 6.51 µM,
Clc1ccccc1-c1ccc2ncnc(NCc3cccnc3)c2c1,"inconclusive [inhibitor, single point]",
O=C(O)CCSc1nc2ccccc2c(=O)[nH]1,,inactive: -4.06%
Cc1ccc2ccc3ccc(C)nc3c2n1,active: 0.0164 µM,
Cc1ccc(NC(=O)NCC2CCN(Cc3cc(C)ccc3Cl)CC2)c(C)c1,"inconclusive [inhibitor, single point]",
O=C(c1ccc(Cl)cc1)N1CCC(=O)N(C(CO)Cc2ccccc2)CC1 (stereo not drawn),,inactive: 5.26%
O=C(c1ccccc1F)N1c2ncnn2C2(CCCCC2)[C@@H]2CCCC[C@@H]21,"inconclusive [inhibitor, single point]",
CC(=O)Nc1ccc(S(=O)(=O)N(Cc2ccco2)Cc2cc3ccccc3[nH]c2=O)cc1,"inconclusive [inhibitor, partial curve]",
Cc1cc(C)n2c(SCc3ccc(Cl)cc3Cl)nnc2n1,"inconclusive [inhibitor, partial curve]",
